# The list shows a part of the results.
# B1: PhoQ; a variant is named by its letters at X, in order, P23837 (parent)
# chain: MKKLLRLFFPLSLRVRFLLATAAVVLVLSLAYGMVALIGYSVSFDKTTFRLLRGESNLFYTLAKWENNKLHVELPENIDKQSPTMTLIYDENGQLLWAQRDVPWLMKMIQPDWLKSNGFHEIEADVNDTSLLLSGDHSIQQQLQEVREDDDDAEMTHSVAVNVYPATSRMPKLTIVVVDTIPVELKSSYMVWSWFIYVLSANLLLVIPLLWVAAWWSLRPIEALAKEVRELEEHNRELLNPATTRELTSLVRNLNRLLKSERERYDKYRTTLTDLTHSLKTPLXXLQXXLRSLRSEKMSVSDAEPVMLEQISRISQQIGYYLHRASMRGGTLLSRELHPVAPLLDNLTSALNKVYQRKGVNISLDISPEISFVGEQNDFVEVMGNVLDNACKYCLEFVEISARQTDEHLYIVVEDDGPGIPLSKREVIFDRGQRVDTLRPGQGVGLAVAREITEQYEGKIVAGESMLGGARMEVIFGRQHSAPKDE
# Variants of: B1
# Assay: enrichment ratio after two sorts for PhoP signalling (ratio (wild type AVST 3.29)); higher = more functional
# Conditions: with PhoP (E. coli)
row,Variant,enrichment ratio
1,NPPH,≤ 0.25
2,IRVK,≤ 0.25
3,QEPF,≤ 0.25
4,SPMT,≤ 0.25
5,QDDY,≤ 0.25
6,VGYQ,≤ 0.25
7,DQWV,≤ 0.25
8,RMAA,≤ 0.25
9,ASVH,8.62
10,PGYQ,≤ 0.25
11,ANYS,≤ 0.25
12,TCEW,≤ 0.25
13,HYKY,≤ 0.25
14,KEIH,≤ 0.25
15,LFCG,≤ 0.25
16,VWLY,≤ 0.25
17,MDEC,≤ 0.25
18,DIGE,≤ 0.25
19,HSFA,≤ 0.25
20,TQGG,1.42
21,QPLP,≤ 0.25
22,RATD,≤ 0.25
23,LPAL,≤ 0.25
24,QPEP,≤ 0.25

row,Variant,enrichment ratio
1,KKNR,≤ 0.25
2,KLCE,≤ 0.25
3,WQCY,≤ 0.25
4,VVQK,≤ 0.25
5,CSHG,≤ 0.25
6,MQGL,≤ 0.25
7,KGSE,≤ 0.25
8,THLE,1.14
9,PKLI,≤ 0.25
10,FLTS,≤ 0.25
11,MDAN,2.34
12,LYMA,≤ 0.25
13,AVIV,≤ 0.25
14,TLHY,≤ 0.25
15,IWSE,≤ 0.25
16,NRHR,≤ 0.25
17,AVPE,≤ 0.25
18,WFNK,≤ 0.25
19,SAFC,≤ 0.25
20,DQID,≤ 0.25
21,MLRE,≤ 0.25
22,MGRE,≤ 0.25
23,LTTH,≤ 0.25
24,ETVY,≤ 0.25

row,Variant,enrichment ratio
1,RFIA,≤ 0.25
2,VERH,≤ 0.25
3,ESRQ,≤ 0.25
4,QSYR,≤ 0.25
5,DIEN,≤ 0.25
6,AKTA,≤ 0.25
7,LKAP,≤ 0.25
8,QSLS,0.374
9,SYQG,≤ 0.25
10,LRRG,≤ 0.25
11,RWNC,≤ 0.25
12,KDSD,≤ 0.25
13,HGTK,≤ 0.25
14,VRFF,≤ 0.25
15,TRVT,0.41
16,FTES,≤ 0.25
17,QRNT,≤ 0.25
18,GAIL,2.75
19,HRWV,≤ 0.25
20,TLLL,0.398
21,LNVY,≤ 0.25
22,DPNL,≤ 0.25
23,MDVQ,≤ 0.25
24,RFPI,≤ 0.25

row,Variant,enrichment ratio
1,PASI,≤ 0.25
2,NTYF,≤ 0.25
3,NFGV,≤ 0.25
4,LVHY,≤ 0.25
5,SKVL,6.09
6,YQMM,≤ 0.25
7,SMET,≤ 0.25
8,MEVN,17.3
9,INFC,≤ 0.25
10,ITHT,≤ 0.25
11,RHGS,≤ 0.25
12,TCQV,10.1
13,VRRP,≤ 0.25
14,PTEH,≤ 0.25
15,RYEY,≤ 0.25
16,QSHF,9.45
17,PDCH,≤ 0.25
18,VPCD,≤ 0.25
19,GCTT,≤ 0.25
20,KCCP,≤ 0.25
21,FFRE,≤ 0.25
22,TKWT,0.945
23,FHQT,≤ 0.25
24,GLFQ,≤ 0.25

row,Variant,enrichment ratio
1,LDWF,0.495
2,IFNS,≤ 0.25
3,NKMN,≤ 0.25
4,RITA,≤ 0.25
5,WSRM,≤ 0.25
6,NVFS,≤ 0.25
7,FVYP,≤ 0.25
8,KSQN,≤ 0.25
9,HWIF,≤ 0.25
10,TWFY,≤ 0.25
11,GSVA,≤ 0.25
12,DPVY,≤ 0.25
13,HWGC,≤ 0.25
14,TAKE,≤ 0.25
15,AGIR,0.567
16,KHSG,≤ 0.25
17,EPSY,≤ 0.25
18,HTRI,≤ 0.25
19,IYEQ,≤ 0.25
20,AEYE,≤ 0.25
21,TCHE,≤ 0.25
22,WKWC,≤ 0.25
23,PIKK,≤ 0.25
24,QLLT,≤ 0.25

row,Variant,enrichment ratio
1,PHVG,≤ 0.25
2,VPKG,≤ 0.25
3,WHAK,≤ 0.25
4,PFTW,≤ 0.25
5,QLEM,≤ 0.25
6,YFDH,≤ 0.25
7,LSHM,4.14
8,WESL,≤ 0.25
9,WRTM,≤ 0.25
10,VKST,≤ 0.25
11,EGYH,≤ 0.25
12,TTMR,5.27
13,FIED,≤ 0.25
14,AHEV,≤ 0.25
15,MDCA,≤ 0.25
16,RMKS,≤ 0.25
17,SAVF,4.22
18,SIQA,0.295
19,YCTI,≤ 0.25
20,IHQG,≤ 0.25
21,YRGV,≤ 0.25
22,SQAL,7.54
23,LERA,≤ 0.25
24,YCYI,≤ 0.25

row,Variant,enrichment ratio
1,SLDC,≤ 0.25
2,PIFG,≤ 0.25
3,YMAT,≤ 0.25
4,HTAW,≤ 0.25
5,MGHI,19.7
6,VNRN,≤ 0.25
7,SANI,≤ 0.25
8,RYCR,≤ 0.25
9,SQKC,0.303
10,VDPC,≤ 0.25
11,FYMM,≤ 0.25
12,FRHV,≤ 0.25
13,SHFI,≤ 0.25
14,IDRI,≤ 0.25
15,NGVQ,≤ 0.25
16,VIHI,≤ 0.25
17,LKLH,≤ 0.25
18,PMGY,≤ 0.25
19,QNQD,≤ 0.25
20,QTWQ,≤ 0.25
21,LMSV,≤ 0.25
22,YLLH,≤ 0.25
23,CICK,≤ 0.25
24,DGDW,≤ 0.25

row,Variant,enrichment ratio
1,YCPE,≤ 0.25
2,WAVA,≤ 0.25
3,KNVQ,≤ 0.25
4,NHGR,≤ 0.25
5,YGKY,≤ 0.25
6,YMEF,≤ 0.25
7,TMIM,≤ 0.25
8,WKKC,≤ 0.25
9,SMFE,≤ 0.25
10,VQFA,≤ 0.25
11,KQFR,≤ 0.25
12,MIWW,≤ 0.25
13,WMIP,≤ 0.25
14,PVMG,≤ 0.25
15,KGMP,≤ 0.25
16,QICE,≤ 0.25
17,YHDT,≤ 0.25
18,ASQI,0.709
19,LFPW,≤ 0.25
20,QFKC,≤ 0.25
21,QAGW,≤ 0.25
22,ALYC,0.281
23,AHIW,≤ 0.25
24,QFAS,≤ 0.25

row,Variant,enrichment ratio
1,INSC,≤ 0.25
2,YGRT,≤ 0.25
3,EMPS,≤ 0.25
4,LRMI,≤ 0.25
5,FMKR,≤ 0.25
6,FTAY,≤ 0.25
7,GGTR,≤ 0.25
8,QNCM,≤ 0.25
9,MGMW,≤ 0.25
10,ICAC,≤ 0.25
11,CFLR,≤ 0.25
12,DVID,≤ 0.25
13,VYAT,≤ 0.25
14,IHMP,≤ 0.25
15,HRYE,≤ 0.25
16,WKYC,≤ 0.25
17,DYML,≤ 0.25
18,RPVF,≤ 0.25
19,FRDS,≤ 0.25
20,NEMA,≤ 0.25
21,FRKC,≤ 0.25
22,RHGW,≤ 0.25
23,KKLG,≤ 0.25
24,NHMS,≤ 0.25

row,Variant,enrichment ratio
1,QERF,≤ 0.25
2,DVNS,≤ 0.25
3,WKLL,≤ 0.25
4,WIMY,≤ 0.25
5,GWMR,≤ 0.25
6,KFNK,≤ 0.25
7,WKLC,≤ 0.25
8,MFLE,≤ 0.25
9,LASN,≤ 0.25
10,LANK,≤ 0.25
11,NAFP,≤ 0.25
12,VSRQ,≤ 0.25
13,NENS,≤ 0.25
14,YCVT,≤ 0.25
15,HSNA,≤ 0.25
16,RNDT,≤ 0.25
17,PKEG,≤ 0.25
18,MNNQ,≤ 0.25
19,SLDT,≤ 0.25
20,SMEH,≤ 0.25
21,EFPV,≤ 0.25
22,CPDM,≤ 0.25
23,WNIP,≤ 0.25
24,WQQG,≤ 0.25

row,Variant,enrichment ratio
1,SQWL,≤ 0.25
2,SARE,≤ 0.25
3,HFEY,≤ 0.25
4,NFGR,≤ 0.25
5,QFSI,≤ 0.25
6,TMQV,3.17
7,MPNN,≤ 0.25
8,GSLW,≤ 0.25
9,PPNA,≤ 0.25
10,ICCL,≤ 0.25
11,RLTF,≤ 0.25
12,IEHN,≤ 0.25
13,FDLT,≤ 0.25
14,MCKT,≤ 0.25
15,GYLQ,≤ 0.25
16,HFHQ,≤ 0.25
17,RYDH,≤ 0.25
18,NDNT,≤ 0.25
19,QCYL,3.96
20,GSPH,≤ 0.25
21,CTSL,11.6
22,KMPK,≤ 0.25
23,GTRF,≤ 0.25
24,MLRM,≤ 0.25

row,Variant,enrichment ratio
1,LGCH,≤ 0.25
2,FDDR,≤ 0.25
3,YRGR,≤ 0.25
4,DPVR,≤ 0.25
5,YPPY,≤ 0.25
6,EVCR,≤ 0.25
7,LPME,≤ 0.25
8,DTEN,≤ 0.25
9,VKLN,≤ 0.25
10,NEVI,4.98
11,ACIC,9.45
12,FIIC,≤ 0.25
13,HMYY,≤ 0.25
14,QADF,3.05
15,AHGR,≤ 0.25
16,DGEM,≤ 0.25
17,NRYH,≤ 0.25
18,PVCS,≤ 0.25
19,IVWD,≤ 0.25
20,IITD,≤ 0.25
21,RNST,≤ 0.25
22,WESN,≤ 0.25
23,TNWG,≤ 0.25
24,DQAG,≤ 0.25

row,Variant,enrichment ratio
1,IKCK,≤ 0.25
2,GRVE,≤ 0.25
3,DYLM,≤ 0.25
4,ENVW,≤ 0.25
5,HSHV,≤ 0.25
6,YCAA,≤ 0.25
7,NNFK,≤ 0.25
8,DPTR,≤ 0.25
9,PHHR,≤ 0.25
10,VCEF,≤ 0.25
11,IMTK,≤ 0.25
12,KAHD,≤ 0.25
13,RYDC,≤ 0.25
14,IYAG,≤ 0.25
15,HNTA,≤ 0.25
16,PPCQ,≤ 0.25
17,PNTK,≤ 0.25
18,HPMY,≤ 0.25

# — a collection of fitness landscapes (doi:10.1126/science.1257360)
